Assay results taken from PMC4336329 (PLoS ONE, 2015).
About 14,000 (4.5%) of roughly 310,000 compounds showed an effect of 50% or more. Effects have a minus sign here. The list shows a part of the results.
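Also: peak tail current of the secondary pulse compared with the same well before compound.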

The compounds below were run against human ether-à-go-go-related gene (hERG) potassium channel (human, UniProt Q12809) (assay: primary screen, population patch clamp on CHO cells stably expressing hERG).
human ether-à-go-go-related gene (hERG) potassium channel, sequence (Q12809 whole entry, looked up): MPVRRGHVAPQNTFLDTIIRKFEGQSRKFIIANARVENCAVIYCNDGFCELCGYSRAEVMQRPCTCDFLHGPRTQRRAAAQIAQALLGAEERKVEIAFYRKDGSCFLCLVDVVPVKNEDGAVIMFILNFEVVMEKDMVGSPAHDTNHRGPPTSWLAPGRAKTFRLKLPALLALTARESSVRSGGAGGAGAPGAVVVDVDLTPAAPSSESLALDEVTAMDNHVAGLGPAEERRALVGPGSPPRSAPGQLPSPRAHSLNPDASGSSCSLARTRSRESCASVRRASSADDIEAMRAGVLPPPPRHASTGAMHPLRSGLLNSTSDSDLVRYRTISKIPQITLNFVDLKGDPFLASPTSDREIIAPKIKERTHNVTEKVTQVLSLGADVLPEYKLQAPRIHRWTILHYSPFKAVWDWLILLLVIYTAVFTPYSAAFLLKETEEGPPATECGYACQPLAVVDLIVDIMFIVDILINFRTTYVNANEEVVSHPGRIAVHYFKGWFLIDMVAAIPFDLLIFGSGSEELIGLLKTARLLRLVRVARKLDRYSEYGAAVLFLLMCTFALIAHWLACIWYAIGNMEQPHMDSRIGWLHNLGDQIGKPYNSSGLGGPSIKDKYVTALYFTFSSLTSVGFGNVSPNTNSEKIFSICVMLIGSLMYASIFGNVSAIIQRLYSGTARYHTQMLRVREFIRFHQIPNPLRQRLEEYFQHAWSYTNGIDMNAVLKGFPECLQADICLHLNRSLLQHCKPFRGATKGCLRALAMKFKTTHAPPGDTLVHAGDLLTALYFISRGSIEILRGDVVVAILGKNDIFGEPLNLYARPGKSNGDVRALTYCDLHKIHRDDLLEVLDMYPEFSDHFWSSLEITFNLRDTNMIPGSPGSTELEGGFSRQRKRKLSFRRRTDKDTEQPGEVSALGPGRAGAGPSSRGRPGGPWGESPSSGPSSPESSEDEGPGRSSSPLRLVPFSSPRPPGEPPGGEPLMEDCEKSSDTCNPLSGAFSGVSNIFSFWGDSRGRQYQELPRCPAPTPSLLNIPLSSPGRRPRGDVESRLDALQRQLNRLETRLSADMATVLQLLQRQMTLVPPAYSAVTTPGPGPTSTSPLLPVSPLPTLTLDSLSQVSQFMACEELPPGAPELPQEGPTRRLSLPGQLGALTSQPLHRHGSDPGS
In the case of `CCCCCn1c(CN2CCN(C(=O)OCC)CC2)nc2c1c(=O)n(C)c(=O)n2C`, the “hERG current change (%, negative = inhibition) at 10uM” value is reported as -34.6%.
For `CC(Nc1nc(=S)nc(Nc2ccc(F)cc2)[nH]1)c1ccccc1` (stereo not drawn), the “hERG current change (%, negative = inhibition) at 10uM” value was 22.8%.
With `O=C(CS(=O)c1ccc(F)cc1)Nc1ccccc1Cl` (stereo not drawn) the “hERG current change (%, negative = inhibition) at 10uM” value was 26.7%.
In the case of `C=CCN=C(C)C1=C(O)C(C)OC1=O` (stereo not drawn), the “hERG current change (%, negative = inhibition) at 10uM” value is reported as -1.78%.
In the case of `O=C(CN1CCCCC1)NNC(=O)c1ccc([N+](=O)[O-])cc1`, the “hERG current change (%, negative = inhibition) at 10uM” value is reported as -9.32%.
`Cc1ccccc1-n1cc(C(=O)c2cc(Cl)ccc2O)cc(C#N)c1=O` was tested, and the “hERG current change (%, negative = inhibition) at 10uM” value was 5.29%.
For `O=C(OCC(=O)N1CCN(c2ccccc2)CC1)c1cc(Cl)ccc1[N+](=O)[O-]`, the “hERG current change (%, negative = inhibition) at 10uM” value was -37%.
For `Cc1cccc(Nc2nnc(SCC(=O)c3c(N)n(C4CC4)c(=O)[nH]c3=O)s2)c1C`, the “hERG current change (%, negative = inhibition) at 10uM” value was 3.14%.
With `N#CC1(P(=O)(c2ccccc2)c2ccccc2)CC1` the “hERG current change (%, negative = inhibition) at 10uM” value was -12.9%.
In the case of `O=C(NCc1ccccc1C(F)(F)F)C1CC(O)CN1C(=O)Nc1ccccc1` (stereo not drawn), the “hERG current change (%, negative = inhibition) at 10uM” value is reported as 18.5%.
`COc1ccc(/C=N\NC(=O)c2ccc([N+](=O)[O-])c(C)c2)cc1COc1ccccc1C(N)=O` was tested, and the “hERG current change (%, negative = inhibition) at 10uM” value was 23.8%.
`CC(C)(C)NC(=O)C(c1ccccn1)N(C(=O)C1CSC(=O)C1)c1cccc(F)c1` (stereo not drawn) was tested, and the “hERG current change (%, negative = inhibition) at 10uM” value was 13.1%.
With `Cc1cccc(OCC(=O)Nc2ccc(N3CCN(C(=O)c4ccco4)CC3)cc2)c1` the “hERG current change (%, negative = inhibition) at 10uM” value was -28.1%.
With `O=C(Nc1ccc(C(F)(F)F)cc1)C1(c2ccccc2)CC1` the “hERG current change (%, negative = inhibition) at 10uM” value was -15.2%.
For `O=c1cc(-c2ccc(O)c(O)c2)oc2cc(O)c(C3OC(CO)C(O)C(O)C3O)c(O)c12` (stereo not drawn), the “hERG current change (%, negative = inhibition) at 10uM” value was 3.72%.
With `COc1ccc(OC)c(C2C(C(=O)c3ccc(C)o3)=C(O)C(=O)N2CCN2CCOCC2)c1` (stereo not drawn) the “hERG current change (%, negative = inhibition) at 10uM” value was 16.7%.
With `COc1ccc(C)cc1Nc1n[n+](-c2ccccc2)c(-c2c(OC)ccc3ccccc23)s1.[Cl-]` the “hERG current change (%, negative = inhibition) at 10uM” value was -53.8%.
In the case of `O=C(O)/C=C/C(=O)Nc1ccc2nccnc2c1`, the “hERG current change (%, negative = inhibition) at 10uM” value is reported as 24.7%.
In the case of `OCCNc1nc(-c2ccccc2)nc2c1oc1ccccc12`, the “hERG current change (%, negative = inhibition) at 10uM” value is reported as -0.0828%.
With `CCCc1ccc(OCC(O)CN2CCCC2)cc1.Cl` (stereo not drawn) the “hERG current change (%, negative = inhibition) at 10uM” value was -27.8%.
For `CCC1=NC(c2ccccc2OC)N(O)C1(C)C` (stereo not drawn), the “hERG current change (%, negative = inhibition) at 10uM” value was 15.9%.
`O=C(N/N=C/c1cc(O)ccc1[N+](=O)[O-])c1ccc2c(c1)OCCO2` was tested, and the “hERG current change (%, negative = inhibition) at 10uM” value was -2.12%.
With `COc1ccc(CCNC(=O)Nc2ccc(F)cc2F)cc1OC` the “hERG current change (%, negative = inhibition) at 10uM” value was 21%.
In the case of `CSc1nc2ccsc2c(=O)n1-c1ccccn1`, the “hERG current change (%, negative = inhibition) at 10uM” value is reported as 14.3%.
With `Cc1ccc(NC(=O)N2CCCC2C(=O)NCC2CCCCC2)cc1` (stereo not drawn) the “hERG current change (%, negative = inhibition) at 10uM” value was 14.5%.
In the case of `CCCCCNC(=O)CN(c1ccc2c(c1)OCO2)S(C)(=O)=O`, the “hERG current change (%, negative = inhibition) at 10uM” value is reported as 8.95%.
For `COP(=O)(OC)C(Nc1ccccn1)c1ccccc1` (stereo not drawn), the “hERG current change (%, negative = inhibition) at 10uM” value was 26.6%.
For `O=C(c1cc2cc(F)ccc2[nH]1)N1CCC2(CC1)OCCO2`, the “hERG current change (%, negative = inhibition) at 10uM” value was -6.7%.
For `COc1ccc(-n2c(SCCC#N)nnc2-c2cc(Cl)ccc2OC)cc1Cl`, the “hERG current change (%, negative = inhibition) at 10uM” value was 8.39%.
In the case of `Cc1cc(C)c(S(=O)(=O)NCCSCc2ccco2)c(C)c1`, the “hERG current change (%, negative = inhibition) at 10uM” value is reported as 6.54%.
With `CCOc1ccccc1N` the “hERG current change (%, negative = inhibition) at 10uM” value was 11.7%.
For `CCCCC(CC)C(=O)Nc1cc(=O)[nH]c2nc3ccccc3n12` (stereo not drawn), the “hERG current change (%, negative = inhibition) at 10uM” value was 16.9%.
`O=C(NCc1ccc(C(=O)O)cc1)OCc1ccccc1` was tested, and the “hERG current change (%, negative = inhibition) at 10uM” value was 13.8%.
In the case of `O=C(CSc1nnc(CNC(=O)c2c(F)cccc2Cl)o1)NCc1ccc2c(c1)OCO2`, the “hERG current change (%, negative = inhibition) at 10uM” value is reported as -19.8%.
With `COc1ccc2cc3c(N)c(C(=O)N4CCCC4)sc3nc2c1` the “hERG current change (%, negative = inhibition) at 10uM” value was -11.3%.
For `Cc1ccc(OCC(=O)NC2CCCC(C)C2C)c([N+](=O)[O-])n1` (stereo not drawn), the “hERG current change (%, negative = inhibition) at 10uM” value was -14.1%.
`O=C(CSCc1cnn(-c2ccccc2)c1-n1cccc1)NCCN1CCOCC1` was tested, and the “hERG current change (%, negative = inhibition) at 10uM” value was 6.64%.
In the case of `CC(C)c1ccc(-n2cnn(-c3ncccc3[N+](=O)[O-])c2=O)cc1`, the “hERG current change (%, negative = inhibition) at 10uM” value is reported as -13.6%.
For `COc1ccc(NC(=O)c2cc3c(-c4ccc(OC)c(OC)c4)nn(C)c3s2)cc1OC`, the “hERG current change (%, negative = inhibition) at 10uM” value was 13.9%.
In the case of `N#Cc1cn(CC(=O)N2CCCc3ccccc32)c2ccccc12`, the “hERG current change (%, negative = inhibition) at 10uM” value is reported as -14.7%.
In the case of `CN(C)CCSc1nc(O)c(-c2ccccc2)c(=O)n1-c1ccccc1`, the “hERG current change (%, negative = inhibition) at 10uM” value is reported as 2.82%.
With `CCOc1cc2[nH]c(=O)n(CCCCC(=O)N3CCCCCC3)c(=O)c2cc1OCC` the “hERG current change (%, negative = inhibition) at 10uM” value was 4.75%.
